Results published in paper PMC12820563.
This is one part of the list. The list includes weakly bound sequences.

Target: T1, MBP-FoxP3dN (UniProt Q99JB6)
T1 sequence: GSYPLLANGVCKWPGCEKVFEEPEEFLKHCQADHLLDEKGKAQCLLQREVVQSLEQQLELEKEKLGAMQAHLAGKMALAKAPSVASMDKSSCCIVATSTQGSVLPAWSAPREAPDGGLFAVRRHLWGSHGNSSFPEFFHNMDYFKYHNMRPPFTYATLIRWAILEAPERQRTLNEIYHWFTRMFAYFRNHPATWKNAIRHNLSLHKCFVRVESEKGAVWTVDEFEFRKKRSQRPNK
Assay: PD-seq (MBP pull-down with sequencing)
Conditions: 20 mM Tris-HCl pH 7.5, 100 mM NaCl, 1.5 mM MgCl2, 0.4 uM protein, 0.1 uM dsDNA library, 30 min, room temperature, amylose pull-down; high values mean tight binding; double strand, one strand shown

Row | Sequence | binding signal (RPM ratio (pull-down/input))
1 | GATGATTGTTCTCCCAGCTGATGAATTAACGCGATCGAGTAAACAAATTTTCCTAATCTTTCTGTTCAAGCGCCATCTAC | 0.623
2 | GATGATTGTTCTCCCAGCTGATGAATTATAGCTGTCGAGTAAACAAATTTTCCTAATCTTTCTGTTCAAGCGCCATCTAC | 0.523
3 | GATGATTGTTCTCCCAGCTGATGAATTGATTGCCTCGAGTAAACAAATTTTCCTAATCTTTCTGTTCAAGCGCCATCTAC | 1.55
4 | GATGATTGTTCTCCCAGCTGATGAATTCCGAGTGTCGAGTAAACAAATTTTCCTAATCTTTCTGTTCAAGCGCCATCTAC | 1.1
5 | GATGATTGTTCTCCCAGCTGATGAATTTCGGGCGTCGAGTAAACAAATTTTCCTAATCTTTCTGTTCAAGCGCCATCTAC | 0.479
6 | GATGATTGTTCTCCCAGCTGATGAATTTAAAAGTTCGAGTAAACAAATTTTCCTAATCTTTCTGTTCAAGCGCCATCTAC | 0.183
7 | GATGATTGTTCTCCCAGCTGATGAATTCGTTGTATCGAGTAAACAAATTTTCCTAATCTTTCTGTTCAAGCGCCATCTAC | 4.52
8 | GATGATTGTTCTCCCAGCTGATGAATTACAGTAATCGAGTAAACAAATTTTCCTAATCTTTCTGTTCAAGCGCCATCTAC | 0.589
9 | GATGATTGTTCTCCCAGCTGATGAATTTCGCATATCGAGTAAACAAATTTTCCTAATCTTTCTGTTCAAGCGCCATCTAC | 3.23
10 | GATGATTGTTCTCCCAGCTGATGAATTCGGAGCCTCGAGTAAACAAATTTTCCTAATCTTTCTGTTCAAGCGCCATCTAC | 0.408
11 | GATGATTGTTCTCCCAGCTGATGAATTACTTCGGTCGAGTAAACAAATTTTCCTAATCTTTCTGTTCAAGCGCCATCTAC | 0.198
12 | GATGATTGTTCTCCCAGCTGATGAATTACGGTTCTCGAGTAAACAAATTTTCCTAATCTTTCTGTTCAAGCGCCATCTAC | 0.967
13 | GATGATTGTTCTCCCAGCTGATGAATTAGTGTTGTCGAGTAAACAAATTTTCCTAATCTTTCTGTTCAAGCGCCATCTAC | 3.93
14 | GATGATTGTTCTCCCAGCTGATGAATTTGCCTAATCGAGTAAACAAATTTTCCTAATCTTTCTGTTCAAGCGCCATCTAC | 0.653
15 | GATGATTGTTCTCCCAGCTGATGAATTCATGGGCTCGAGTAAACAAATTTTCCTAATCTTTCTGTTCAAGCGCCATCTAC | 0.363
16 | GATGATTGTTCTCCCAGCTGATGAATTAGGGCAATCGAGTAAACAAATTTTCCTAATCTTTCTGTTCAAGCGCCATCTAC | 1.66
17 | GATGATTGTTCTCCCAGCTGATGAATTGGTAATGTCGAGTAAACAAATTTTCCTAATCTTTCTGTTCAAGCGCCATCTAC | 0.755
18 | GATGATTGTTCTCCCAGCTGATGAATTAGGATTCTCGAGTAAACAAATTTTCCTAATCTTTCTGTTCAAGCGCCATCTAC | 0.53
19 | GATGATTGTTCTCCCAGCTGATGAATTTGACCACTCGAGTAAACAAATTTTCCTAATCTTTCTGTTCAAGCGCCATCTAC | 0.461
20 | GATGATTGTTCTCCCAGCTGATGAATTAGCTTATTCGAGTAAACAAATTTTCCTAATCTTTCTGTTCAAGCGCCATCTAC | 3.09

Row | Sequence | binding signal (RPM ratio (pull-down/input))
21 | GATGATTGTTCTCCCAGCTGATGAATTAGATAAGTCGAGTAAACAAATTTTCCTAATCTTTCTGTTCAAGCGCCATCTAC | 0.283
22 | GATGATTGTTCTCCCAGCTGATGAATTGGAGTGGTCGAGTAAACAAATTTTCCTAATCTTTCTGTTCAAGCGCCATCTAC | 0.455
23 | GATGATTGTTCTCCCAGCTGATGAATTAGAAATGTCGAGTAAACAAATTTTCCTAATCTTTCTGTTCAAGCGCCATCTAC | 0.302
24 | GATGATTGTTCTCCCAGCTGATGAATTAGGAATGTCGAGTAAACAAATTTTCCTAATCTTTCTGTTCAAGCGCCATCTAC | 0.57
25 | GATGATTGTTCTCCCAGCTGATGAATTGTGGTTCTCGAGTAAACAAATTTTCCTAATCTTTCTGTTCAAGCGCCATCTAC | 1.7
26 | GATGATTGTTCTCCCAGCTGATGAATTGGTGAGTTCGAGTAAACAAATTTTCCTAATCTTTCTGTTCAAGCGCCATCTAC | 1.06
27 | GATGATTGTTCTCCCAGCTGATGAATTGCCGCGATCGAGTAAACAAATTTTCCTAATCTTTCTGTTCAAGCGCCATCTAC | 0.765
28 | GATGATTGTTCTCCCAGCTGATGAATTGTATTTTTCGAGTAAACAAATTTTCCTAATCTTTCTGTTCAAGCGCCATCTAC | 3.78
29 | GATGATTGTTCTCCCAGCTGATGAATTGAATTGCTCGAGTAAACAAATTTTCCTAATCTTTCTGTTCAAGCGCCATCTAC | 0.968
30 | GATGATTGTTCTCCCAGCTGATGAATTTCTCCCTTCGAGTAAACAAATTTTCCTAATCTTTCTGTTCAAGCGCCATCTAC | 0.249
31 | GATGATTGTTCTCCCAGCTGATGAATTGTCTATCTCGAGTAAACAAATTTTCCTAATCTTTCTGTTCAAGCGCCATCTAC | 0.982
32 | GATGATTGTTCTCCCAGCTGATGAATTGTACTTCTCGAGTAAACAAATTTTCCTAATCTTTCTGTTCAAGCGCCATCTAC | 0.521
33 | GATGATTGTTCTCCCAGCTGATGAATTCGAGCCCTCGAGTAAACAAATTTTCCTAATCTTTCTGTTCAAGCGCCATCTAC | 0.346
34 | GATGATTGTTCTCCCAGCTGATGAATTCAACGCATCGAGTAAACAAATTTTCCTAATCTTTCTGTTCAAGCGCCATCTAC | 0.942
35 | GATGATTGTTCTCCCAGCTGATGAATTTCCGATCTCGAGTAAACAAATTTTCCTAATCTTTCTGTTCAAGCGCCATCTAC | 0.257
36 | GATGATTGTTCTCCCAGCTGATGAATTCTCGACTTCGAGTAAACAAATTTTCCTAATCTTTCTGTTCAAGCGCCATCTAC | 0.42
37 | GATGATTGTTCTCCCAGCTGATGAATTCCATTCTTCGAGTAAACAAATTTTCCTAATCTTTCTGTTCAAGCGCCATCTAC | 0.367
38 | GATGATTGTTCTCCCAGCTGATGAATTCATCAAATCGAGTAAACAAATTTTCCTAATCTTTCTGTTCAAGCGCCATCTAC | 0.256
39 | GATGATTGTTCTCCCAGCTGATGAATTAGCACGTTCGAGTAAACAAATTTTCCTAATCTTTCTGTTCAAGCGCCATCTAC | 0.484
40 | GATGATTGTTCTCCCAGCTGATGAATTGACGTCGTCGAGTAAACAAATTTTCCTAATCTTTCTGTTCAAGCGCCATCTAC | 0.561
